Laboratory results: PubChem BioAssay (Tox21)
Values joined by “and” are separate entries in the source; they are usually repeats but may differ in a detail not shown here. Equal entries are not always repeated. The inconclusive results got no clear call from the source; some entries with a clear call stand among them for comparison. No potency is given beside an inconclusive call; the fits are too rough. Active and inactive are the calls of the source. The call rests on the fitted dose curve; in most records, active means well fitted curve in the direction sought with a large enough effect in the repeat runs; inconclusive means weak or mixed curves; inactive means no such curve, though single readings can be large; an effect the other way counts as inactive or inconclusive.

Assay: qHTS RealTime-Glo MT Cell Viability Assay in HepG2 cells - 8 hour (AID 1224873); further: nearly all actives have a fitted effect of over 55% in size
Conditions: RealTime-Glo luminescence; series mostly up to 76.8 µM
How it was run: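 HepG2 cells mixed with RealTime-Glo MT reagents (NanoLuc plus cell-permeant prosubstrate) were seeded at 600 cells/well, incubated 5 h at 37 C/5% CO2, then pinned with compounds in DMSO; nonlytic luminescence tracked viability during 40 h treatment.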
On the % scale 0 is the no-effect control and ±100 the full control effect; potency means the concentration at half of the fitted maximal effect; tags describe the fitted curve by direction and shape.

SMILES | Potency
CC(Oc1ccc(Cl)cc1Cl)C(=O)O (centres undefined) | inactive
C[C@H]1[C@H](c2ccc(Cl)cc2)SC(=O)N1C(=O)NC1CCCCC1 | inconclusive [falling, partial curve, poor fit]
O.O.O.O.O.O.O.O=S(=O)([O-])[O-].[Co+2] | inconclusive [falling, partial curve, poor fit]

Assay: qHTS RealTime-Glo MT Cell Viability Assay in HEK293 cells - 40 hour (AID 1224874); further: nearly all actives have a fitted effect of over 50% in size
Conditions: RealTime-Glo luminescence; max response: active compounds read low
How it was run: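 Cells were seeded together with NanoLuc luciferase and a prosubstrate that viable cells reduce to a luciferase substrate. After a 5 h incubation at 37 C/5% CO2, compounds were added and luminescence was measured repeatedly during 40 h of treatment.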

SMILES | max response | Potency
Cc1ccc(N)cc1Cl | inactive: -5.66% and inactive: 1.08% | –
CC(Br)C(=O)O (centres undefined) | inactive: 0.901% and inactive: -24.8% | –
CC(Oc1ccc(Cl)cc1Cl)C(=O)O (centres undefined) | – | inconclusive [cytotoxic, partial curve, poor fit]
Fc1cccc(Cl)c1CCl | inactive: -1.59% | –
CCCCCCCCCBr | inactive: -6.03% | –
CC(C)(CCl)C(=O)Cl | inactive: 0.815% | –
CCCCCCOC(=O)c1ccccc1C(=O)OCCCCCC | – | inconclusive [cytotoxic, full curve, poor fit]
OC[P+](CO)(CO)CO | inactive: 5.15% and inactive: -10.7% | –
Cc1ncc(C[n+]2csc(CCO)c2C)c(N)n1 | inactive: -4.98% | –
N#CCc1ccccc1 | inactive: 2.97% | –
C=CCCl | inactive: -3.44% | –
Cc1nn(-c2cc(NS(C)(=O)=O)c(Cl)cc2Cl)c(=O)n1C(F)F | inactive: 1.81% | –
COP(=S)(OC)Oc1cc(Cl)c(Br)cc1Cl | – | inconclusive [cytotoxic, single point]
ClCCBr | inactive: -0.15% and inactive: 0.955% | –
BrCc1ccc(Br)cc1 | inactive: 4.4% | –
Nc1c(Cl)cc([N+](=O)[O-])cc1Cl | – | inconclusive [cytotoxic, partial curve]
C[C@H]1[C@H](c2ccc(Cl)cc2)SC(=O)N1C(=O)NC1CCCCC1 | – | active: 43.6 µM
CO/N=C(/C(=O)OC)c1ccccc1COc1ccccc1C | – | inconclusive [cytotoxic, single point]
Cn1c(N)nc2c3cccnc3ccc21 | inactive: -11% | –
NCCOS(=O)(=O)O | inactive: 1.3% | –
Oc1ccc(C(=C(Cl)Cl)c2ccc(O)cc2)cc1 | – | active: 43.6 µM
CC1C(=O)C[C@]2(C(C)C)C[C@H]12 (some centres undefined) | inactive: 9.37% | –
COC(N)=O | – | inconclusive [cytotoxic, single point]
CSC1=N[C@@](C)(c2ccccc2)C(=O)N1Nc1ccccc1 | – | inconclusive [cytotoxic, single point]
CCOC(=O)Nc1cccc(OC(=O)Nc2ccccc2)c1 | – | inconclusive [cytotoxic, partial curve, poor fit]
O.O.O.O.O.O.O.O=S(=O)([O-])[O-].[Co+2] | inactive: 0.267% | –
Nc1cc(Cl)cc(Cl)c1 | inactive: -2.18% and inactive: 1.19% | –

Assay: A CellTox Green Cytotoxicity Assay to monitor cytotoxicity in HEK293 cells - 24 hour (AID 1224875); further: nearly all actives have a fitted effect of over 45% in size
Conditions: CellTox Green fluorescence; series mostly up to 76.8 µM
How it was run: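 Nonlytic real-time cytotoxicity: HEK293 + CellTox Green reagent plated, 5 h preincubation, pintool compound addition (23 nL in DMSO), 37 C for 40 h, fluorescence measured at successive time points.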

SMILES | Potency
Clc1ccc(C(Cl)(Cl)Cl)cc1 | inconclusive [activator, partial curve, poor fit]
Nc1cc(Cl)ccc1Cl | inactive
CCCCOC(=O)c1ccccc1N | inconclusive [activator, single point]
c1nc[nH]n1 | inactive
COc1nn(C(=O)NS(=O)(=O)c2ccccc2OC(F)(F)F)c(=O)n1C | active: 22.4 µM
N#CSCc1ccccc1 | inactive
COP(=S)(OC)Oc1cc(Cl)c(Br)cc1Cl | inactive
Cc1ccc(N)c(C)c1 | inactive
Nc1nc(N)c(N)c(N)n1 | active: 49.2 µM
CO/N=C(/C(=O)OC)c1ccccc1COc1ccccc1C | inactive
CN=C=O | inactive
Clc1ccccc1-c1nnc(-c2ccccc2Cl)nn1 | inactive
CCOP(O)OCC | inactive
O=C(O)c1ccccc1O | inconclusive [activator, single point]
